Measurements: paper PMC3541133
Results are given in words; binding and its absence hold for the method and conditions named. Some entries that bind do so weakly or less than the wild type. For part of these data: Tags and fused reporters may be left off the sequences shown.

Chains of the proteins cited; added tags and fusions are not shown.
UniProt Q6P280: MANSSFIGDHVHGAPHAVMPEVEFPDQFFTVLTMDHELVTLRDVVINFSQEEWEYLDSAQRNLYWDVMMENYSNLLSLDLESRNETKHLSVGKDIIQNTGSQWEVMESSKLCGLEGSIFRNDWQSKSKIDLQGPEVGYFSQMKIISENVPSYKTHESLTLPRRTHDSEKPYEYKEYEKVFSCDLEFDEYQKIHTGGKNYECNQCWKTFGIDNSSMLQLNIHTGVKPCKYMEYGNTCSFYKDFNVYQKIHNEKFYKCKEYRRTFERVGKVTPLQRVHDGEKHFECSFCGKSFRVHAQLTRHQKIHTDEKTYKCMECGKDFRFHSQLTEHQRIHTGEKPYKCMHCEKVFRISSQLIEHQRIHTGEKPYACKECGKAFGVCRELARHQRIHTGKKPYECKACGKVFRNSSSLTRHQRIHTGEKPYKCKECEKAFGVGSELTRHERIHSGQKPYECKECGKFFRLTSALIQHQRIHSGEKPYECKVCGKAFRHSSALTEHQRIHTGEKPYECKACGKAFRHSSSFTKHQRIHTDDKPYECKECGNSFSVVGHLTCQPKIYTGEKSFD
UniProt Q9UHP6: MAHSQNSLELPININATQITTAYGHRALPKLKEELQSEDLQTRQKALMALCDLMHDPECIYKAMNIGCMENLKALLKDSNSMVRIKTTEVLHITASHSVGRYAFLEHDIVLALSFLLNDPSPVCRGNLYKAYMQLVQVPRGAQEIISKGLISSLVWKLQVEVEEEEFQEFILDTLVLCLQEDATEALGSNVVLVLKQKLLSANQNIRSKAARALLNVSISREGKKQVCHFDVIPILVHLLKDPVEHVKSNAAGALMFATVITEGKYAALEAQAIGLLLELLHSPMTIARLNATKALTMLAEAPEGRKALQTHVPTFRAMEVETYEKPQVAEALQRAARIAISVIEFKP
UniProt Q9NPJ4: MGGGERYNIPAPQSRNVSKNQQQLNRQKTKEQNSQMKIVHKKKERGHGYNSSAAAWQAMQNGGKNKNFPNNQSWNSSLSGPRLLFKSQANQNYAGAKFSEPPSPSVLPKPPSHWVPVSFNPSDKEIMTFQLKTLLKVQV
UniProt P78362: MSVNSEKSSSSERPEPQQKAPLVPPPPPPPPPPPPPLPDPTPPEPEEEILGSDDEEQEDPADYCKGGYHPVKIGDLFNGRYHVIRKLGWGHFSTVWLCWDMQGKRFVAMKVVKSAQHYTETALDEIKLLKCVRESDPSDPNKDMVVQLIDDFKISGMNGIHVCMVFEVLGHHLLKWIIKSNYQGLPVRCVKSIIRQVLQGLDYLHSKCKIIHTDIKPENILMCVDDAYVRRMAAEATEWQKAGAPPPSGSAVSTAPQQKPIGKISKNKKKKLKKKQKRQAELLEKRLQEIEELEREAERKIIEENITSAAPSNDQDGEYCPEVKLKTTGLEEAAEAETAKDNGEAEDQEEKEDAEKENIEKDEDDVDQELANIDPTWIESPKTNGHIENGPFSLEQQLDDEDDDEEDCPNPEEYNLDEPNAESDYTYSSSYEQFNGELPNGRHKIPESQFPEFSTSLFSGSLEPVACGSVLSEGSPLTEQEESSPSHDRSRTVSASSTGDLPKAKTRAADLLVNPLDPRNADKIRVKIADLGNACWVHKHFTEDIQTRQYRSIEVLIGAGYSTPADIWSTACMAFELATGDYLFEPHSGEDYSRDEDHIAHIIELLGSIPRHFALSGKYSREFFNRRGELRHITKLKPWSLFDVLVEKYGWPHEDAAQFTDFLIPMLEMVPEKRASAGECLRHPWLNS
UniProt Q9NVX2: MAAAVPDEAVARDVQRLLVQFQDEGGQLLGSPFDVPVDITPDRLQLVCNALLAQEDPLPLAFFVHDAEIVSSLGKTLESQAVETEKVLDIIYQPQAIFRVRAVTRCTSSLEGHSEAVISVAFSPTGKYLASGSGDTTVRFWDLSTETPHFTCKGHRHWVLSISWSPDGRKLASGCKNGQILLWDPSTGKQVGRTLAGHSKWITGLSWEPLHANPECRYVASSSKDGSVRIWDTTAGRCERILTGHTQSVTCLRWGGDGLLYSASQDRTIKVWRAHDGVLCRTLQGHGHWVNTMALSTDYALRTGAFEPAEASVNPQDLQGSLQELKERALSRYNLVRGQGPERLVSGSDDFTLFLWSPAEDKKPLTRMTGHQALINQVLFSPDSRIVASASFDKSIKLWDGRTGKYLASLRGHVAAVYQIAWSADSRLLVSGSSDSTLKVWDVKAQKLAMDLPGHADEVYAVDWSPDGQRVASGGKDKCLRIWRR
UniProt P03197: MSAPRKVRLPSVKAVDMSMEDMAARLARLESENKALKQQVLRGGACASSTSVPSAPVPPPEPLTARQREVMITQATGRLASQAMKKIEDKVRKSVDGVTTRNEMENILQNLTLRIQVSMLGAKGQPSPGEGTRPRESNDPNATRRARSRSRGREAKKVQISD

Legend:
Assay in all cases: two-hybrid; BLRF2-AD in MATa haploid yeast mated with MATα yeast carrying DB-human hybrid proteins of the human ORFeome v5.1; growth on selective media; primary screens done twice, hits sequenced and retested
[1] = biological target: ZNF529 (DB-human hybrid protein, human ORFeome v5.1) (human) (UniProt Q6P280)
[2] = biological target: T1, SRPRB (DB-human hybrid protein, human ORFeome v5.1) (human) (UniProt Q9Y5M8)
T1 sequence: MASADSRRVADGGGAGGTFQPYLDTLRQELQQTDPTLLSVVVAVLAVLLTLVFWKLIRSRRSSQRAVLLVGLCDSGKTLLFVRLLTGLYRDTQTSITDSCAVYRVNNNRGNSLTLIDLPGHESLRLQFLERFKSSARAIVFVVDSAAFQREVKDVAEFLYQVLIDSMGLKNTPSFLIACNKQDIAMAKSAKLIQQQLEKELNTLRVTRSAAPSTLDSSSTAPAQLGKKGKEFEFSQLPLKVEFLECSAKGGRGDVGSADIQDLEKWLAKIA

[3] = biological target: RTDR1 (DB-human hybrid protein, human ORFeome v5.1) (human) (UniProt Q9UHP6)
[4] = biological target: PNRC2 (DB-human hybrid protein, human ORFeome v5.1) (human) (UniProt Q9NPJ4)
[5] = biological target: T2, SNX14 (DB-human hybrid protein, human ORFeome v5.1) (human) (UniProt Q9Y5W7)
T2 sequence: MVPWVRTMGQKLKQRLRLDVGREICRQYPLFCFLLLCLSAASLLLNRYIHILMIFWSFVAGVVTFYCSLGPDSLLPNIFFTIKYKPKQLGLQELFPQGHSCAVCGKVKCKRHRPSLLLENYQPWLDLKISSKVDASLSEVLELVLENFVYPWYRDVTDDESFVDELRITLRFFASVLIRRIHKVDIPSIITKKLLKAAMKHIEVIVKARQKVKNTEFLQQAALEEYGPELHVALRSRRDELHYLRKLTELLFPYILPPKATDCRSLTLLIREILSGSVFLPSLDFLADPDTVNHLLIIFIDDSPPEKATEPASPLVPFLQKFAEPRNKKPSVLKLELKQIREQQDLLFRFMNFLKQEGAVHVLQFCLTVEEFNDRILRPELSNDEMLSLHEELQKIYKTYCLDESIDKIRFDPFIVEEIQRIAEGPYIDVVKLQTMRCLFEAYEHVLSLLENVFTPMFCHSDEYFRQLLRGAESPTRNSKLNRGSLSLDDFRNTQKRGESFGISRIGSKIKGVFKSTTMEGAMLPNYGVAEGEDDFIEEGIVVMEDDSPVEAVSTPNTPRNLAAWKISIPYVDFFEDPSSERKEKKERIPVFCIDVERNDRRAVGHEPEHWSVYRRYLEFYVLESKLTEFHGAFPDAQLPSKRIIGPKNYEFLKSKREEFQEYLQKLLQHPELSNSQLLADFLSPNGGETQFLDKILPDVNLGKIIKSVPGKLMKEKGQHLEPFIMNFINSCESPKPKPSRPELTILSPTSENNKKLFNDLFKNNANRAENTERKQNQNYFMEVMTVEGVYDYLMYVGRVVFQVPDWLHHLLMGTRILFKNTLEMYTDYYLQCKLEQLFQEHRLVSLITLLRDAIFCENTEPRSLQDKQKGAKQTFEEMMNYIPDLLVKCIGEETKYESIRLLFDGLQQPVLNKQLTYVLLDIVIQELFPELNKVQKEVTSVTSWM

[6] = biological target: SRPK2 (DB-human hybrid protein, human ORFeome v5.1) (human) (UniProt P78362)
[7] = biological target: NLE1 (DB-human hybrid protein, human ORFeome v5.1) (human) (UniProt Q9NVX2)
[8] = biological target: T3, CCL3L3 (DB-human hybrid protein, human ORFeome v5.1) (human) (UniProt P16619)
T3 sequence: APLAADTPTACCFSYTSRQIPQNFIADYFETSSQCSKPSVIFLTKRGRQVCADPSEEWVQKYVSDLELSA

[9] = biological target: T4, SLC6A13 (DB-human hybrid protein, human ORFeome v5.1) (human) (UniProt Q9NSD5)
T4 sequence: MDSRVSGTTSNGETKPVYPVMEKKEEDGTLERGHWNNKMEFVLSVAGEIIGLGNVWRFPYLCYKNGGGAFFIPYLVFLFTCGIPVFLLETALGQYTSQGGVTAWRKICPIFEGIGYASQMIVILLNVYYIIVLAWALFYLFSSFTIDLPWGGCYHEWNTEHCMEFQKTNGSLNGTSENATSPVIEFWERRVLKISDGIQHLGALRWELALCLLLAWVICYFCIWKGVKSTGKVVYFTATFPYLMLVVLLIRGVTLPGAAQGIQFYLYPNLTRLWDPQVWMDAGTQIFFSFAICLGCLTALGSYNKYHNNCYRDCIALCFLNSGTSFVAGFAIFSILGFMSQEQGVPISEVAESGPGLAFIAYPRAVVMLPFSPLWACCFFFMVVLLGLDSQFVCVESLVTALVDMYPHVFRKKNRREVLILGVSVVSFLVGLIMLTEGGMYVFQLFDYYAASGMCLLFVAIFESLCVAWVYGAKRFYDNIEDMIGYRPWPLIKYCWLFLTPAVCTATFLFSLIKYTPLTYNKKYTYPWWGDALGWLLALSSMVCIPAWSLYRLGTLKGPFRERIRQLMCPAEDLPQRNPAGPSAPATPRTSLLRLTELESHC

Measured: binding

BLRF2 yeast two-hybrid fusions (gal4-AD-BLRF2 and gal4-DB-BLRF2) (from UniProt P03197 1-162)
binds: all assays above
